Legend:
[1] = molecular target: Natalizumab (IgG4); assay: SPR, Biacore 3000, 25 C, Langmuir 1:1
[2] = molecular target: T1, Panitumab (IgG2); assay: SPR, Biacore 3000, 25 C, Langmuir 1:1
T1 construct: Used as the hIgG2 target in SPR; also called hIgG2

[3] = molecular target: T2, Polyclonal human IgG Gammanorm (human); assay: dynamic binding capacity, ligand coupled to Praesto Pure85 resin, polyclonal hIgG load
T2 construct: Polyclonal mixture of human IgG, bought; also called hIgG; polyclonal hIgG

Sequence of Natalizumab (IgG4) (VH, as listed by the source, chain 1 of 2): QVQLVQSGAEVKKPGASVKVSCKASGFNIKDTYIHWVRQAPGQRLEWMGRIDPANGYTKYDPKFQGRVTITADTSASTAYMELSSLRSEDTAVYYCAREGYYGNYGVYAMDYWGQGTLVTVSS
Sequence of Natalizumab (IgG4) (VL, as listed by the source, chain 2 of 2): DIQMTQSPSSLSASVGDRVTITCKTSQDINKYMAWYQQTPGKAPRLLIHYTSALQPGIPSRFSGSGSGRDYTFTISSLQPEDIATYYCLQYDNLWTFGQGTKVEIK

Binder | Kd [1] [µM] | Kd [2] [µM] | DBC10% at 6 min residence time [3] [mg/mL]
Ig binding protein cs26, CID 203447 (parent, cs26 43C) (designed binder, Parent molecule) IAAQHDKDQQAAFYEILHLPNLTEEQRNAFIQSLRDDPSVSLCILAEAKKLNDAQAPK | 0.0027 | 0.0232 | 54.9
Ig binding protein CID 203704, cs26 variant N28H (designed binder, also called cs26 28H) IAAQHDKDQQAAFYEILHLPNLTEEQRHAFIQSLRDDPSVSLCILAEAKKLNDAQAPK | 0.02 | 0.107 | 56
Ig binding protein CID 203524, cs26 variant D6L (designed binder, also called variant 6L) IAAQHLKDQQAAFYEILHLPNLTEEQRNAFIQSLRDDPSVSLCILAEAKKLNDAQAPK | 0.004 | 0.11 | 
Ig binding protein CID 203550, cs26 variant D8I (designed binder, also called cs26 8I; variant 8I) IAAQHDKIQQAAFYEILHLPNLTEEQRNAFIQSLRDDPSVSLCILAEAKKLNDAQAPK | 0.0024 | 0.0206 | 56.6

Source: US12570690 (NAVIGO PROTEINS, dated 2026)
